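Cells were grown in 96-well plates and exposed to each compound for 48 hours at five concentrations; endpoints were interpolated linearly between bracketing concentrations, or set to the highest concentration if not reached. The concentration for 50% growth inhibition is given as GI50.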 Calls of active or inactive are those of the source. Rule as the data show it: active = GI50 up to about 1.1 µM and inactive = higher.

The subject of this assay is NCI-H322M. The experiment in a line: NCI-60 cell line screen, 48 h.
As for `O=C(O)c1cccc(S(=O)(=O)NCCO)c1`, the GI50 was inactive: > 100 µM.

Regarding `Oc1cc(CF)nc(S)n1`, the GI50 is inactive: > 100 µM. The figure for `COc1ccc(-n2cnn3c(=O)c4cn[nH]c4nc23)cc1` is inactive: > 10 µM. Next, `CC1(C)OC2C(CO)OC(N/C(=N/C#N)Oc3ccccc3)C2O1` (configuration not stated): inactive: > 100 µM. For `CN(C)CCNC(=O)c1cccc2nc3c4ccccc4c4ccccc4c3nc12`, the GI50 is inactive: 1.65 µM. The figure for `CCOC(=O)CC[C@H](NC(=O)N[C@H](C)c1ccccc1)C(=O)OCC` is inactive: 83.4 µM; for `C/C(=N\NC(=[Se])N(C)C)c1ccccn1` it is active: 0.0196 µM.

As for `COC(=O)c1cc(-c2ccc(-c3ccc(O)cc3)cc2)cc(-c2ccc(-c3ccc(O)cc3)cc2)c1`, the GI50 is inactive: 13.1 µM.

Turning to `Cc1ccc(C(=O)C(Cl)C(Cl)c2ccc(C)cc2)cc1` (configuration not stated), the GI50 was inactive: 13.6 µM. For the molecule `O=S(=O)(c1cccc(N=C=S)c1)c1cccc(N=C=S)c1`, the GI50 is inactive: 42.8 µM. With `CCOC(=O)/C(C#N)=C/c1ccc(SCc2ccco2)c([N+](=O)[O-])c1`, the GI50 is inactive: > 100 µM. Next, `ClC(Cl)=C(Cl)C1(Cl)CC1COCc1ccccc1` (configuration not stated): inactive: 36.5 µM; `CCC(C)(O)c1cn(-c2cccc(S(=O)(=O)O)c2)nn1` (configuration not stated): inactive: > 100 µM. Regarding `CC(=O)O[C@H]1CC[C@@]2(C)C(=CC[C@H]3[C@@H]4CC[C@H](c5cc(C(F)(F)F)n(C(C)=O)n5)[C@@]4(C)CC[C@@H]32)C1`, the GI50 was inactive: 11.2 µM. As for `NN/C(=N\S(=O)(=O)c1cc2ccccc2o1)Nc1ccc(Cl)cc1`, the GI50 is inactive: > 100 µM. As to `Cc1ccc2c(=O)c3ccccc3sc2c1`, the GI50 is inactive: > 100 µM. The figure for `COC(=O)/C(=N\Nc1nnc(C)n1N)C(C#N)c1ccccc1` (configuration not stated) is inactive: > 100 µM; for `Cc1ccc2c(C3Cc4ccccc4N3C(=O)/C=C\C(=O)O)c(C)[nH]c2c1` (configuration not stated) it is inactive: > 100 µM. The figure for `N#CC(C#N)=C1C(=O)NC(N)=C1C#N` is inactive: > 100 µM; for `COc1ccc2c(c1)C1(C=N2)CCN(C(C)=O)CC1` it is inactive: > 100 µM. Next, `Clc1nc(Nc2nc3ccccc3[nH]2)nc(Cl)c1Cc1ccccc1`: inactive: > 100 µM.

In the case of `CC(=O)NC(CS/N=N/c1[nH]cnc1C(N)=O)C(=O)O` (configuration not stated), the GI50 was inactive: > 42.6 µM. In the case of `CO[P@@]1(=O)O[C@@H](c2ccccc2)[C@H](O)[C@@]1(O)c1ccccc1`, the GI50 was inactive: > 100 µM.

In the case of `C[N+](C)(C)CC1CCc2ccccc2C1=O` (configuration not stated), the GI50 was inactive: 18.8 µM. The figure for `CCOC(=O)c1c(N2CCN(C)CC2)[nH]c(=O)c(C(c2c(Cl)cccc2Cl)c2c(O)c(C(=O)OCC)c(N3CCN(C)CC3)[nH]c2=O)c1O` is inactive: 25.9 µM; for `CCOC(=O)C1=CN=C2C(=O)N(c3ccccc3)N(C)C2(C)C1=N` (configuration not stated) it is inactive: > 100 µM. `CCOC(=O)C1=C(NC)OC/C1=N\NC(=O)c1ccccc1O`: the GI50 was inactive: 27.9 µM. On to `N#CC1=C(S)N(C2OC(CO)C(O)C(O)C2O)C(c2ccccc2)=CC1c1cccs1` (configuration not stated), for which the GI50 is inactive: 17.1 µM.

For the molecule `COc1ccc2[nH]cc(C=C3C(=O)NC(=S)NC3=O)c2c1`, the GI50 was inactive: > 100 µM. Next, `O=C1c2ccccc2C(=O)c2c1ccc1c3ccccc3n(Cc3ccccc3)c21`: inactive: > 100 µM; `Clc1ccc(-c2nn3c(COc4ccc(OCc5nnc6sc(-c7ccc(Cl)cc7)nn56)c(Cl)c4)nnc3s2)cc1`: inactive: 53 µM. Next, `COC(=O)C1Cc2ccc(O)c(O)c2CN1` (configuration not stated): inactive: 29 µM. `CCOC(=O)c1ccc(N(CCOS(C)(=O)=O)CCOS(C)(=O)=O)cc1`: the GI50 is inactive: > 100 µM. Next, `CN(C)/C=N/S(=O)(=O)c1nn2c(C=O)c(-c3cc4ccccc4oc3=O)nc2s1`: inactive: 23.8 µM; `COc1ccc(NC(=O)CCc2cc(C(C)(C)C)[nH]n2)cc1`: inactive: > 100 µM. Take `CCOC(=O)c1ccn2c(c1)c(C#N)c1nc3ccccc3nc12`: the GI50 was inactive: > 100 µM.

For `O=C(CC(=O)C(F)(F)F)c1csc2ccccc12`, the GI50 is inactive: 40.2 µM. Next, `O=[N+]([O-])c1ccc2nc3ccccc3cc2c1`: inactive: 3.52 µM; `CC1(C)CCc2c(cc3c(c2O)CCC(C)(C)O3)O1`: inactive: > 100 µM; `CC1(C)C2CCC1C(=O)C(C=O)C2` (configuration not stated): inactive: > 100 µM.

Turning to `O=C(/C=C1\C[C@H]2C=Nc3ccccc3C(=O)N2C1)NCCCCCNC(=O)/C=C1\C[C@H]2C=Nc3ccccc3C(=O)N2C1`, the GI50 was inactive: 15.7 µM. In the case of `O=C1Nc2ccccc2/C1=N/Nc1nc(-c2cccc([N+](=O)[O-])c2)cs1`, the GI50 is inactive: 27.1 µM. For `C(/C=N/c1ccccc1)=C(/Nc1ccccc1)c1ccc2ccccc2c1`, the GI50 is inactive: 4.02 µM. Consider `Nc1ccc(Nc2cc(=O)[nH]c(=O)[nH]2)cc1Cl`, for which the GI50 is inactive: > 100 µM. With `CC(=O)OC(=O)O/C=C\CCl`, the GI50 is inactive: > 100 µM.

As for `O=C(O)C1C2C=CC(O2)C1C(=O)NCc1cccnc1` (configuration not stated), the GI50 was inactive: > 100 µM. Consider `CSc1ncnc2c1ncn2CCC#N`, for which the GI50 was inactive: > 100 µM. In the case of `COc1ccc(N[S+]([O-])C2CCCCC2)cc1` (configuration not stated), the GI50 was inactive: > 100 µM. The figure for `CC#CC(=O)Nc1ccccc1CC(c1c[nH]c2ccccc12)c1c[nH]c2ccccc12` is inactive: 21.8 µM. For `Cc1cccc(C(C)(C)C)c1NC(=O)CC1C(=O)Nc2ccccc2[S+]1[O-]` (configuration not stated), the GI50 is inactive: 98.6 µM.

For `CSc1c(C#N)c(=O)n(N)c2[nH]nc(C)c12`, the GI50 was inactive: > 100 µM. For `CSc1ncc2c(n1)-c1ccccc1OC2NC(C)(C)C` (configuration not stated), the GI50 was inactive: 49 µM. Next, `NC1CCCCC1.O=P(O)(O)C1(P(=O)(O)O)CC1`: inactive: > 100 µM. The figure for `C#C[C@@]1(O)CCCC2=CC(=O)C[C@]21C` is inactive: > 100 µM. As to `O=C(N/N=C(COc1ccccc1)\N=C\c1ccncc1)c1ccncc1`, the GI50 was inactive: > 100 µM. Next, `CN(C)c1nc2nonc2nc1Nc1ccccc1`: inactive: > 100 µM; `CCOC(=O)C(N=C(c1ccccc1)c1ccccc1)N(C(=O)OC(C)(C)C)C(=O)OC(C)(C)C` (configuration not stated): inactive: > 100 µM. Consider `CCCCCCc1cc2cc(-c3cn4ccsc4n3)c(=O)oc2cc1O`, for which the GI50 is inactive: > 100 µM. The figure for `O=S(=O)(O)c1cc(S(=O)(=O)O)c2c(Nc3ccnc4ccccc34)ccc(S(=O)(=O)O)c2c1` is inactive: > 100 µM; for `SC1=Nc2ccccc2-c2nc(-c3cccc(Cl)c3)cc(-c3ccccc3)c2C1` it is active: 0.662 µM; for `CCOc1cc2c(OCc3ccccc3)cc3c4cc(OC)c(OC)cc4c[n+](C)c3c2cc1OC` it is inactive: 3.53 µM. As for `COC1=CC(=O)c2c(cc(COP(N)(=O)N(CCBr)CCBr)n2C)C1=O` (configuration not stated), the GI50 is inactive: 1.75 µM.
